Measurements reported in paper PMC12040169 (PLOS Biology, 2025).
The other results are listed elsewhere or left out.

Tested on: T1, C. trachomatis L2/434/Bu expressing GFP (CTL2-GFP)
T1 construct: L2/434/Bu GFP intracellular growth in HeLa cells
Parameters: species or system HeLa; C. trachomatis total inclusion area by high-content imaging, normalised to DMSO
Conditions: total inclusion area; 28.5 h, 10 µM; inhibitor
How it was run: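 High-content imaging followed the bulk GFP/resorufin measurement: fixed, Hoechst-stained cells were scored for GFP inclusions and host nuclei per well. Total inclusion area and count served as growth proxies, nuclei number as the viability proxy. MIC calculation matched the bulk assay.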

Row | Compound | % of control remaining
1 | O=C(CO)N1CC2(CCN(CCc3cccc4ccccc34)CC2)c2ccccc21 [CBK137003] | 80.0279
2 | CNS(=O)(=O)c1c(C)nn(-c2ccccc2)c1C [CBK086715] | 70.3246
3 | CS(=O)(=O)Nc1ccc2c(ccn2Cc2ccccc2)c1 [CBK159527] | 80.9199
4 | FC(F)(F)C1(NC2(C(Cl)(Cl)Cl)Oc3ccccc3O2)Oc2ccccc2O1 [CBK265544] | 87.5481
5 | CC(C)(C)c1ccc(-c2cc(C3CCNCC3)n[nH]2)cc1 [CBK270240] | 81.4653
6 | CN(C)CCN(C)c1cncc(-c2cccc(/C=C/C(=O)O)c2)n1 [CBK065451] | 109.774
7 | Cc1ccc2c(CSc3nc(N)cc(N)n3)cc(=O)oc2c1C [CBK297519] | 80.4065
8 | Cc1cc(C)c2cc(C(=O)N(C)CC3(C)COC3)[nH]c2c1 [CBK281711] | 101.243
9 | Cc1ccc(-c2nnc(CNC(=O)c3ccc(F)c(F)c3)o2)s1 [CBK284647] | 120.651
10 | CC(C)c1nsc(NS(=O)(=O)c2cccc(C(F)(F)F)c2)n1 [CBK038881] | 90.5977
11 | O=[N+]([O-])c1cccc(S(=O)(=O)Nc2ccc(C(O)(C(F)(F)F)C(F)(F)F)cc2)c1 [CBK062093] | 85.721
12 | Cc1cc(C)nc(Nc2ncc(O)n2-c2ccccc2)n1 [CBK287914] | 94.6171
13 | Cc1cnc2[nH]c(C3CCN(C(=O)c4scnc4C)CC3)cc2c1 [CBK284753] | 107.946
14 | CC(=O)c1ccc(CN2CCN(S(=O)(=O)c3ccc(C(F)(F)F)cc3Cl)CC2)cc1 [CBK063072] | 71.5416
15 | CN(C)S(=O)(=O)N1CCN(c2ccc([N+](=O)[O-])c(NC3CC3)c2)CC1 [CBK265158] | 106.306
16 | COc1cc(C(C)=O)ccc1OCCCCN1CCOCC1 [CBK269713C] | 95.0623
17 | Cc1ccc2[nH]cc(CCN3CCC4(C3)OCCc3c4[nH]c4ccccc34)c2c1 (stereo not drawn) [CBK061790] | 60.7036
18 | COc1cc2c(cc1NC(=O)CSc1nc3ccccc3o1)oc1ccccc12 [CBK265154] | 119.242
19 | Cc1ccc(NC(=O)c2cc([N+](=O)[O-])ccc2NCCN2C(=O)c3ccccc3C2=O)cc1 [CBK267159] | 111.985
20 | COc1ccccc1CC(=O)N1CC[C@@H]2NC(=O)[C@H]3C[C@H](NC(=O)C4CC4)CN3C(=O)[C@H]21 [CBK289267] | 97.6729
21 | COc1ccccc1C(=O)Cn1c(=O)n(S(=O)(=O)c2ccccc2)c2ccccc21 [CBK106497] | 113.126
22 | O=C(c1cc2cc(F)ccc2[nH]1)N1CCN(c2ncccn2)CC1 [CBK107280] | 47.3296
23 | N#Cc1cccc(C(=O)N2CCN(c3ncccn3)CC2)c1 [CBK144498] | 105.563
24 | O=C(CC(C(=O)O)n1cncn1)c1ccc(Br)cc1 (stereo not drawn) [CBK269305] | 88.1432
25 | CC(C)NC(=O)Cn1nnc(-c2cccc(C(F)(F)F)c2)n1 [CBK304275] | 61.1815
26 | CCN(CC)CCOc1cc(=O)oc2ccccc12 [CBK022747C] | 102.874

Row | Compound | % of control remaining
27 | O=C(NC1(c2ccccc2)CC1)c1cccc(-n2cnnc2)c1 [CBK282779] | 74.0472
28 | COc1cc(/C=N/NC(=O)CSc2n[nH]c(=O)[nH]c2=O)ccc1O [CBK263513] | 72.3111
29 | CSc1ncc(C(=O)N2CCC(N3CCCC(O)C3)CC2)cn1 (stereo not drawn) [CBK307055] | 26.619
30 | O=C(Nc1sc2c(c1C(=O)O)CCC2)c1ccco1 [CBK152436] | 98.5581
31 | NCC1CCN(c2cc(C(F)(F)F)c3scc(C(=O)NCCC4=CCCCC4)c3n2)CC1 [CBK028475] | 46.9159
32 | O=C(NC1CCCOC1)c1cc(-c2ccc(F)cc2)no1 (stereo not drawn) [CBK283141] | 86.6841
33 | CN(Cc1nnc(C2CC2)n1C)C1CCN(CCCc2cn[nH]c2)C1 (stereo not drawn) [CBK305305] | 54.2299
34 | CN(CCCc1cc(-c2cccc(F)c2)n[nH]1)C(=O)c1cnn(C)c1 [CBK305745] | 106.712
35 | COc1cccc(C2C(C(=O)c3ccc(Br)cc3)=C(O)C(=O)N2CCN2CCOCC2)c1OC (stereo not drawn) [CBK264855] | 109.499
36 | O=C1COc2ccccc2C/C=C/CC2(CCN(C(=O)CCn3ccnc3)CC2)CN1 [CBK292131] | 111.457
37 | Nc1ncnc2c1cnn2[C@H]1C[C@@H](O)[C@@H](CO)O1 [CBK201325] | 104.268
38 | CC(C)(C)NC(=O)CN1CCC(c2ccc(F)cc2)CC1 [CBK283629] | 95.921
39 | Cc1cc(CN(C)Cc2c(C)nc3c(C)cccn23)n[nH]1 [CBK281716] | 100.277
40 | CC(=O)c1ccc(O)c2ncccc12 [CBK015821] | 97.8541
41 | Cc1cc(C(=O)NCc2ccnc(N3CCOCC3)c2)c(C)n1-c1cccc(Cl)c1 [CBK298301] | 91.6223
42 | COc1ccc(-c2cc(C(=O)NCc3ccc(N)cc3)cnc2-c2cccc(C)c2)cc1 [CBK036728] | 119.917
43 | Cc1cc(C)c(S(=O)(=O)Nc2ccc(S(=O)(=O)Nc3ccc(Cl)cc3Cl)cc2)c(C)c1 [CBK266022] | 63.7914
44 | Cc1ccc(C2(CN3CCN(Cc4cnn(C)c4)CC3)CC2)cc1 [CBK282480] | 115.156
45 | CN(C)CCCNc1ccc(-c2n[nH]c(=O)c3ccccc23)cc1[N+](=O)[O-] [CBK266200] | 124.371
46 | CC(C)(C)OC(=O)NCCc1ccc(Nc2cc(-c3ccsc3)ncn2)cc1 [CBK090958] | 82.966
47 | COc1cccc(CN2CCC3(CC2)c2[nH]c4ccc(OCc5ccccc5)cc4c2CCN3C=O)c1 [CBK040462] | 90.7189
48 | CCc1nc2c(OCCOc3ccccc3)cccn2c1N(C=O)CC(=O)N(C)C [CBK147510] | 98.5386
49 | CC(C)N1CCC(CNC(=O)Cn2ccc3ccc(F)cc32)CC1 [CBK282571] | 114.329
50 | c1coc(CNc2ncc(-c3ccc(N4CCOCC4)cc3)n3ccnc23)c1 [CBK091220] | 58.8764
51 | c1cnc(-c2nnn[nH]2)c(-c2ccc(COc3ccc4c(c3)OCO4)cc2)n1 [CBK050812] | 92.1926
52 | Cc1cc(O)c(C(C)C)cc1N1C(=O)c2ccc([N+](=O)[O-])cc2C1=O [CBK115323] | 101.814

Row | Compound | % of control remaining
53 | Cn1c(=O)c2c(nc(NCc3ccc4c(c3)OCO4)n2Cc2cccc(Cl)c2)n(C)c1=O [CBK074359] | 90.6982
54 | OC(COc1ccccc1F)CSc1nc(NC2CC2)c2ccccc2n1 (stereo not drawn) [CBK297902] | 82.7612
55 | CCOC(=O)c1c(NC(=O)NCc2cccnc2)sc2c1CCC2 [CBK307585] | 67.5294
56 | COc1cccc(OCC(=O)Nc2ccccc2C(=O)O)c1 [CBK286819] | 103.329
57 | O=C(CO)N1CC2(CCN(CCS(=O)(=O)c3ccccc3)CC2)c2ccccc21 [CBK131505] | 90.9661
58 | COc1cc(-c2ccc(Nc3cccnc3)nc2)cc(OC)c1OC [CBK037704] | 148.628
59 | CCc1nc2ccc(NC(=O)CCCc3ccncc3)cc2[nH]1 [CBK283268] | 84.3141
60 | COc1ccc(C2OCCN2C(C)=O)cc1 (stereo not drawn) [CBK004536] | 106.999
61 | COc1ccc(C(C)C)cc1-c1cncc(N(C)CCN(C)C)n1 [CBK065364] | 79.7919
62 | CC(C)OC(=O)c1nnn(-c2nonc2N)c1CN1CCCCCC1 [CBK027601] | 94.34
63 | FC(F)(F)c1cccc(CN2CCN(CCc3ccccc3)CC2)c1 [CBK126421] | 92.62
64 | NC(=O)[C@H]1C[C@@H](O)[C@H](O)[C@H]2[C@@H]1S/C(=N\c1ccccc1)N2Cc1cccs1 [CBK288944] | 100.375
65 | Cc1c(-c2cc(-c3cnn(C)c3C)[nH]n2)cnn1C [CBK288013] | 115.34
66 | COc1ccc(S(=O)(=O)N2CCC(C(=O)N(C)C(c3cnccn3)c3ccccc3C)CC2)cc1 (stereo not drawn) [CBK060210] | 85.1344
67 | O=C(O)c1cc(NC(=O)c2ccccc2[N+](=O)[O-])cc(C(=O)O)c1 [CBK262135] | 106.667
68 | CCn1c(C(C)C)nc2cc(NC(=O)Cc3c(C)noc3C)ccc21 [CBK281527] | 98.1268
69 | CCn1nc(C)c(C(C)NC(=O)c2ccn(C(F)F)n2)c1C (stereo not drawn) [CBK281534] | 93.226
70 | CC(C)c1ccc(/C=C/C(=O)NCc2ccc(S(N)(=O)=O)cc2)cc1 [CBK161511] | 102.499
71 | Nc1[nH]ncc1-c1nnc(Nc2ccc3c(c2)OCO3)o1 [CBK288537] | 111.645
72 | COc1ccc(C(C)C)cc1-c1cncc(NCC(c2cccnc2)N(C)C)n1 (stereo not drawn) [CBK037132] | 102.314
73 | CNC(=S)NCc1ccncc1 [CBK020033] | 63.5931
74 | COc1ccccc1N(CC(O)CN1C(C)CCCC1C)S(=O)(=O)c1ccccc1 (stereo not drawn) [CBK265585] | 102.731
75 | COCCn1c(CN2CCC(Cc3ccccc3)CC2)nc2c1c(=O)n(C)c(=O)n2C [CBK269378] | 94.605
76 | COCCNC(=O)N[C@H](Cc1ccccc1)C(=O)O [CBK286667] | 96.5056
77 | NC(=O)CN1C(=O)CO[C@H]2CN(Cc3cnc4ccccc4c3)C[C@H]21 [CBK289242] | 113.192
78 | CCOc1ccc(C)cc1S(=O)(=O)NCCc1c(C)[nH]c2c(Cl)cccc12 [CBK268859] | 107.77
